Assay results: the supplement of paper PMC12423691
Some of the results follow. Binding of human transcription factors and regulators to the viral nucleoprotein by AlphaScreen, crude cell-free proteins, amounts not normalised, one pass. Fold of the Venus control; higher = more signal. No active / inactive call. Single-pass screen; sequences are the whole Swiss-Prot entries looked up by name.

B1: TFAP4, Q01664 (protein)
chain: MEYFMVPTQKVPSLQHFRKTEKEVIGGLCSLANIPLTPETQRDQERRIRREIANSNERRRMQSINAGFQSLKTLIPHTDGEKLSKAAILQQTAEYIFSLEQEKTRLLQQNTQLKRFIQELSGSSPKRRRAEDKDEGIGSPDIWEDEKAEDLRREMIELRQQLDKERSVRMMLEEQVRSLEAHMYPEKLKVIAQQVQLQQQQEQVRLLHQEKLEREQQQLRTQLLPPPAPTHHPTVIVPAPPPPPSHHINVVTMGPSSVINSVSTSRQNLDTIVQAIQHIEGTQEKQELEEEQRRAVIVKPVRSCPEAPTSDTASDSEASDSDAMDQSREEPSGDGELP
B2: SOHLH2, Q9NX45 (protein)
chain: MASSIICQEHCQISGQAKIDILLVGDVTVGYLADTVQKLFANIAEVTITISDTKEAAALLDDCIFNMVLLKVPSSLSAEELEAIKLIRFGKKKNTHSLFVFIIPENFKGCISGHGMDIALTEPLTMEKMSNVVKYWTTCPSNTVKTENATGPEELGLPLQRSYSEHLGYFPTDLFACSESLRNGNGLELNASLSEFEKNKKISLLHSSKEKLRRERIKYCCEQLRTLLPYVKGRKNDAASVLEATVDYVKYIREKISPAVMAQITEALQSNMRFCKKQQTPIELSLPGTVMAQRENSVMSTYSPERGLQFLTNTCWNGCSTPDAESSLDEAVRVPSSSASENAIGDPYKTHISSAALSLNSLHTVRYYSKVTPSYDATAVTNQNISIHLPSAMPPVSKLLPRHCTSGLGQTCTTHPNCLQQFWAY
B3: PRKCI, P41743 (protein)
chain: MPTQRDSSTMSHTVAGGGSGDHSHQVRVKAYYRGDIMITHFEPSISFEGLCNEVRDMCSFDNEQLFTMKWIDEEGDPCTVSSQLELEEAFRLYELNKDSELLIHVFPCVPERPGMPCPGEDKSIYRRGARRWRKLYCANGHTFQAKRFNRRAHCAICTDRIWGLGRQGYKCINCKLLVHKKCHKLVTIECGRHSLPQEPVMPMDQSSMHSDHAQTVIPYNPSSHESLDQVGEEKEAMNTRESGKASSSLGLQDFDLLRVIGRGSYAKVLLVRLKKTDRIYAMKVVKKELVNDDEDIDWVQTEKHVFEQASNHPFLVGLHSCFQTESRLFFVIEYVNGGDLMFHMQRQRKLPEEHARFYSAEISLALNYLHERGIIYRDLKLDNVLLDSEGHIKLTDYGMCKEGLRPGDTTSTFCGTPNYIAPEILRGEDYGFSVDWWALGVLMFEMMAGRSPFDIVGSSDNPDQNTEDYLFQVILEKQIRIPRSLSVKAASVLKSFLNKDPKERLGCHPQTGFADIQGHPFFRNVDWDMMEQKQVVPPFKPNISGEFGLDNFDSQFTNEPVQLTPDDDDIVRKIDQSEFEGFEYINPLLMSAEECV
B4: HAND2, P61296 (protein)
chain: MSLVGGFPHHPVVHHEGYPFAAAAAAAAAAAASRCSHEENPYFHGWLIGHPEMSPPDYSMALSYSPEYASGAAGLDHSHYGGVPPGAGPPGLGGPRPVKRRGTANRKERRRTQSINSAFAELRECIPNVPADTKLSKIKTLRLATSYIAYLMDLLAKDDQNGEAEAFKAEIKKTDVKEEKRKKELNEILKSTVSSNDKKTKGRTGWPQHVWALELKQ
B5: FOXE1, O00358 (protein)
chain: MTAESGPPPPQPEVLATVKEERGETAAGAGVPGEATGRGAGGRRRKRPLQRGKPPYSYIALIAMAIAHAPERRLTLGGIYKFITERFPFYRDNPKKWQNSIRHNLTLNDCFLKIPREAGRPGKGNYWALDPNAEDMFESGSFLRRRKRFKRSDLSTYPAYMHDAAAAAAAAAAAAAAAAIFPGAVPAARPPYPGAVYAGYAPPSLAAPPPVYYPAASPGPCRVFGLVPERPLSPELGPAPSGPGGSCAFASAGAPATTTGYQPAGCTGARPANPSAYAAAYAGPDGAYPQGAGSAIFAAAGRLAGPASPPAGGSSGGVETTVDFYGRTSPGQFGALGACYNPGGQLGGASAGAYHARHAAAYPGGIDRFVSAM
B6: ZXDC, Q2QGD7 (protein)
chain: MDLPALLPAPTARGGQHGGGPGPLRRAPAPLGASPARRRLLLVRGPEDGGPGARPGEASGPSPPPAEDDSDGDSFLVLLEVPHGGAAAEAAGSQEAEPGSRVNLASRPEQGPSGPAAPPGPGVAPAGAVTISSQDLLVRLDRGVLALSAPPGPATAGAAAPRRAPQASGPSTPGYRCPEPQCALAFAKKHQLKVHLLTHGGGQGRRPFKCPLEGCGWAFTTSYKLKRHLQSHDKLRPFGCPVGGCGKKFTTVYNLKAHMKGHEQESLFKCEVCAERFPTHAKLSSHQRSHFEPERPYKCDFPGCEKTFITVSALFSHNRAHFREQELFSCSFPGCSKQYDKACRLKIHLRSHTGERPFICDSDSCGWTFTSMSKLLRHRRKHDDDRRFTCPVEGCGKSFTRAEHLKGHSITHLGTKPFECPVEGCCARFSARSSLYIHSKKHVQDVGAPKSRCPVSTCNRLFTSKHSMKAHMVRQHSRRQDLLPQLEAPSSLTPSSELSSPGQSELTNMDLAALFSDTPANASGSAGGSDEALNSGILTIDVTSVSSSLGGNLPANNSSLGPMEPLVLVAHSDIPPSLDSPLVLGTAATVLQQGSFSVDDVQTVSAGALGCLVALPMKNLSDDPLALTSNSNLAAHITTPTSSSTPRENASVPELLAPIKVEPDSPSRPGAVGQQEGSHGLPQSTLPSPAEQHGAQDTELSAGTGNFYLESGGSARTDYRAIQLAKEKKQRGAGSNAGASQSTQRKIKEGKMSPPHFHASQNSWLCGSLVVPSGGRPGPAPAAGVQCGAQGVQVQLVQDDPSGEGVLPSARGPATFLPFLTVDLPVYVLQEVLPSSGGPAGPEATQFPGSTINLQDLQ
B7: GTF2H3, Q13889 (protein)
chain: MVSDEDELNLLVIVVDANPIWWGKQALKESQFTLSKCIDAVMVLGNSHLFMNRSNKLAVIASHIQESRFLYPGKNGRLGDFFGDPGNPPEFNPSGSKDGKYELLTSANEVIVEEIKDLMTKSDIKGQHTETLLAGSLAKALCYIHRMNKEVKDNQEMKSRILVIKAAEDSALQYMNFMNVIFAAQKQNILIDACVLDSDSGLLQQACDITGGLYLKVPQMPSLLQYLLWVFLPDQDQRSQLILPPPVHVDYRAACFCHRNLIEIGYVCSVCLSIFCNFSPICTTCETAFKISLPPVLKAKKKKLKVSA
B8: ZXDA, P98168 (protein)
chain: MEIPKLLPARGTLQGGGGGGIPAGGGRVHRGPDSPAGQVPTRRLLLPRGPQDGGPGRRREEASTASRGPGPSLFAPRPHQPSGGGDDFFLVLLDPVGGDVETAGSGQAAGPVLREEAKAGPGLQGDESGANPAGCSAQGPHCLSAVPTPAPISAPGPAAAFAGTVTIHNQDLLLRFENGVLTLATPPPHAWEPGAAPAQQPRCLIAPQAGFPQAAHPGDCPELRSDLLLAEPAEPAPAPAPQEEAEGLAAALGPRGLLGSGPGVVLYLCPEALCGQTFAKKHQLKMHLLTHSSSQGQRPFKCPLGGCGWTFTTSYKLKRHLQSHDKLRPFGCPAEGCGKSFTTVYNLKAHMKGHEQENSFKCEVCEESFPTQAKLGAHQRSHFEPERPYQCAFSGCKKTFITVSALFSHNRAHFREQELFSCSFPGCSKQYDKACRLKIHLRSHTGERPFLCDFDGCGWNFTSMSKLLRHKRKHDDDRRFMCPVEGCGKSFTRAEHLKGHSITHLGTKPFVCPVAGCCARFSARSSLYIHSKKHLQDVDTWKSRCPISSCNKLFTSKHSMKTHMVKRHKVGQDLLAQLEAANSLTPSSELTSQRQNDLSDAEIVSLFSDVPDSTSAALLDTALVNSGILTIDVASVSSTLAGHLPANNNNSVGQAVDPPSLMATSDPPQSLDTSLFFGTAATGFQQSSLNMDEVSSVSVGPLGSLDSLAMKNSSPEPQALTPSSKLTVDTDTLTPSSTLCENSVSELLTPAKAEWSVHPNSDFFGQEGETQFGFPNAAGNHGSQKERNLITVTGSSFLV
B9: HMGB2, P26583 (protein)
chain: MGKGDPNKPRGKMSSYAFFVQTCREEHKKKHPDSSVNFAEFSKKCSERWKTMSAKEKSKFEDMAKSDKARYDREMKNYVPPKGDKKGKKKDPNAPKRPPSAFFLFCSEHRPKIKSEHPGLSIGDTAKKLGEMWSEQSAKDKQPYEQKAAKLKEKYEKDIAAYRAKGKSEAGKKGPGRPTGSKKKNEPEDEEEEEEEEDEDEEEEDEDEE
B10: CYP1B1, Q16678 (protein)
chain: MGTSLSPNDPWPLNPLSIQQTTLLLLLSVLATVHVGQRLLRQRRRQLRSAPPGPFAWPLIGNAAAVGQAAHLSFARLARRYGDVFQIRLGSCPIVVLNGERAIHQALVQQGSAFADRPAFASFRVVSGGRSMAFGHYSEHWKVQRRAAHSMMRNFFTRQPRSRQVLEGHVLSEARELVALLVRGSADGAFLDPRPLTVVAVANVMSAVCFGCRYSHDDPEFRELLSHNEEFGRTVGAGSLVDVMPWLQYFPNPVRTVFREFEQLNRNFSNFILDKFLRHCESLRPGAAPRDMMDAFILSAEKKAAGDSHGGGARLDLENVPATITDIFGASQDTLSTALQWLLLLFTRYPDVQTRVQAELDQVVGRDRLPCMGDQPNLPYVLAFLYEAMRFSSFVPVTIPHATTANTSVLGYHIPKDTVVFVNQWSVNHDPLKWPNPENFDPARFLDKDGLINKDLTSRVMIFSVGKRRCIGEELSKMQLFLFISILAHQCDFRANPNEPAKMNFSYGLTIKPKSFKVNVTLRESMELLDSAVQNLQAKETCQ

target: nucleoprotein N of Crimean-Congo hemorrhagic fever virus; experiment: AlphaScreen luminescence signal relative to Venus negative control (fold); higher = stronger binding to CCHFV N
Description: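 AlphaScreen binding of cell-free made, FLAG-GST-tagged human transcription factors and regulators (crude translation products) to biotinylated N protein; signal as fold of the FLAG-GST-Venus control. One pass.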

| Binder | AlphaScreen luminescence signal |
| --- | --- |
| B1 | 2.51 |
| B2 | 12 |
| B3 | 2.84 |
| B4 | 2.65 |
| B5 | 1.67 |
| B6 | 0.837 |
| B7 | 2.37 |
| B8 | 1.95 |
| B9 | 4.09 |
| B10 | 2.65 |
